Experimental data published in patent publication US11571480B2, “Multi-ligand drug conjugates and uses thereof” (priority 2015, dated 2023).
For part of these data: Not every detail of the peptide structures is certain; ends, links or a residue may be inferred. For part of these data: At least one compound was matched to its structure with a doubt left. Numbered stars: 1 amine (or outer) side, 2 acyl side, 3 side chain; on linkers, the order of the positions; unused ones are H or OH. Bridge positions count the residues as written; N and C are the ends. Square brackets hold non-standard residues; d marks the D form. Peptide text beside a SMILES is read from it. I, II: the chains in the order shown. * marks the point of attachment. Hexanoyl(6-succinimido-3yl) = O=C1CC([*:1])C(=O)N1CCCCCC(=O)[*:2]; Pteroyl = Nc1nc2ncc(CNc3ccc(C(=O)*)cc3)nc2c(=O)[nH]1; Dolaproine = CO[C@@H]([C@@H]1CCCN1)[C@@H](C)C(=O)O; Dil = CC[C@H](C)[C@H](NC)[C@@H](CC(=O)O)OC; γGlu = O=C(O)[C@H](CCC(=O)[*:2])N[*:1]; PABC = O=C(OCc1ccc(N[*:1])cc1)[*:2]; X1 = C[C@@H](N*)[C@@H](O)c1ccccc1; Cit = NC(=O)NCCC[C@H](N)C(=O)O; NMeV = CN[C@H](C(=O)O)C(C)C

Tests used:
Transplanted SKOV3 tumor = experiment: Inhibitory assay of conjugates LDC10B and LDC10H against xenograf tumors; format: in vivo, nude mice; settings: for tumor growth (in words): SKOV3, doses of 5 and 10 mg/kg every 5 days, three injections; for Tumor size: SKOV3 tumor, 10 mg/kg
Experimental: (§1) Animal: nude mice, aged 6-8 weeks, female
(§2) 1) human large cell lung cancer cell H460, human lung cancer cell A549, ovarian cancer cell SKOV3, and breast cancer cell line HCC1954 were incubated at 37° C., 5% CO2 in IMDM medium containing 10% fetal bovine serum, the cells were passaged every 2-3 days.
(§3) 2) generation of tumors: 7×10^6 tumor cells were injected subcutaneously into the back of nude mice, and the mice were grouped for treatment after the tumor sizes were as large as about 100-200 mm^3.
(§4) 3) treatment: 3 mice/group, treated with LDC10B, LDC10H, as well as controls MMAE and PBS with doses of 5 and 10 mg/kg every 5 days, three injections.
(§5) 4) the physical performance, body weights and tumor sizes of the animals were monitored. The number of animal death was recorded during the experiment.

[1] = tested on: Transplanted HCC1954 tumor; experiment: as above; format: in vivo, nude mice; settings: for tumor growth (in words): HCC1954, doses of 5 and 10 mg/kg every 5 days, three injections; for Tumor size: HCC1954 tumor, 10 mg/kg
Experimental: as §1, §2, §3, §4, §5

Transplanted H460 tumor = experiment: as above; format: in vivo, nude mice; settings: for tumor growth (in words): H460, doses of 5 and 10 mg/kg every 5 days, three injections; for Tumor size: H460 tumor
Experimental: as §1, §2, §3, §4, §5

melanoma cell line A375 = experiment: Cytotoxicity test of conjugate LDC10B; format: cell-based; settings: A375 versus receptor positive cell lines
Experimental: (§6) Culture medium: RPMI 1640 Medium, no folic acid
1) human nasopharyngeal cancer cell line KB, melanoma cell line A375, human lung cancer cell H1299, chronic myeloid leukemia cell line K562, human lung cancer cell H460, ovarian cancer cell SKOV3, breast cancer cell line HCC1954, human gastric cancer cell N87, and human breast cancer cell SK-BR-3 were incubated at 37° C., 5% CO2 in RPMI 1640 medium containing 10% fetal bovine serum, the cells were passaged every 2-3 days.
2) human nasopharyngeal cancer cell line KB, melanoma cell line A375, human lung cancer cell H1299, chronic myeloid leukemia cell line K562, human lung cancer cell H460, ovarian cancer cell SKOV3, breast cancer cell line HCC1954, human gastric cancer cell N87, and human breast cancer cell SK-BR-3 were plated at 1×10^3 cells per well (96-well plate) and incubated for 8-12 h at 37° C., 5% CO2.
(§7) 3) Stock solutions of LDC conjugates or controls were prepared in PBS solution. 100 μL/well of serially diluted LDC conjugates or controls was added to the test cells in the plates and incubated for 15-30 min at 37° C., 5% CO2. The culture medium in the wells was then removed by aspiration and the test cells were incubated in fresh culture medium without conjugates (150 μL/well) for 2-3 days at 37° C., 5% CO2.
4) CellTiter 96® Aqueous One Solution Cell Proliferation Assay (Promega) was added to each well to measure the amount of […] cells, and each plate was incubated in an incubator for 1 h at 37° C., 5% CO2.
5) Each plate was read at 490 nm on a microplate reader, and the cell survivals were compared for test cells with or without the treatment of LDC conjugates. The LDC drug concentrations that are required for 50% cell death (IC50 values) were determined.

[2] = tested on: H1299, SKOV3, HCC1954, H460; experiment: Cytotoxicity test of conjugate LDC10H, comparison over cell lines; format: cell-based, human
[3] = tested on: human lung cancer cell H460; experiment: Cytotoxicity test of conjugate LDC11B; format: cell-based; settings: H460, incubated 15-30 min, then 2-3 days
Experimental: as §6
(§8) 1) human lung cancer cell H460, ovarian cancer cell SKOV3, human embryonic kidney cell 293A were incubated at 37° C., 5% CO2 in RPMI 1640 medium containing 10% fetal bovine serum, the cells were passaged every 2-3 days.
(§9) 2) human lung cancer cell H460, ovarian cancer cell SKOV3, human embryonic kidney cell 293A were plated at 1×10^3 cells per well (96-well plate) and incubated for 8-12 h at 37° C., 5% CO2.
as §7, with “control” for “controls”, “the” for “the test”, “plate” for “plates”
(§10) 4) CellTiter 96® Aqueous One Solution Cell Proliferation Assay (Promega) was added to each well to measure the amount of […] cells, and the plate was incubated in an incubator for 1 h at 37° C., 5% CO2.
(§11) 5) The plate was read at 490 nm on a microplate reader, and the cell survivals were compared for cells with or without the treatment of LDC conjugates. The LDC drug concentrations that are required for 50% cell death (IC50 values) were determined.

[4] = tested on: ovarian cancer cell SKOV3; experiment: Cytotoxicity test of conjugate LDC11B; format: cell-based, human; settings: SKOV3, incubated 15-30 min, then 2-3 days
Experimental: as §6, §8, §9
as §7, with “control” for “controls”, “the” for “the test”, “plate” for “plates”
as §10, §11

[5] = tested on: human nasopharyngeal cancer cell line KB; experiment: Cytotoxicity test of conjugate LDC13B; format: cell-based; settings: incubated 15-30 min, then 2-3 days
Experimental: as §6
1) human nasopharyngeal cancer cell line KB, human colon carcinoma HCT-116, human prostatic cancer cell PC-3, human gastric cancer cell line GTL-16, human endometrial cancer cell HEC-1A, and human gastric cancer cell N87 were incubated at 37° C., 5% CO2 in RPMI 1640 medium containing 10% fetal bovine serum, the cells were passaged every 2-3 days.
2) human nasopharyngeal cancer cell line KB, human colon carcinoma HCT-116, human prostatic cancer cell PC-3, human gastric cancer cell line GTL-16, human endometrial cancer cell HEC-1A, and human gastric cancer cell N87 were plated at 1×10^3 cells per well (96-well plate) and incubated for 8-12 h at 37° C., 5% CO2.
as §7, with “control” for “controls”, “the” for “the test”, “plate” for “plates”
as §10
5) the plate was read at 490 nm on a microplate reader, and the cell survivals were compared for cells with or without the treatment of LDC conjugates. The LDC drug concentrations that are required for 50% cell death (IC50 values) were determined.

[6] = 5 mg/kg, Five days after Injection 1
[7] = 5 mg/kg, Five days after Injection 2
[8] = 5 mg/kg, Five days after Injection 3
[9] = 10 mg/kg, Five days after Injection 1
[10] = 10 mg/kg, Five days after Injection 2
[11] = 10 mg/kg, Five days after Injection 3

SMILES | tumor growth (in words) (Transplanted SKOV3 tumor) | tumor growth (in words) [1] | Tumor size ([1]; Before Injection) | Tumor size ([1]; Five days after Injection 1) | Tumor size ([1]; Five days after Injection 2) | Tumor size ([1]; Five days after Injection 3) | tumor growth (in words) (Transplanted H460 tumor) | Tumor size (Transplanted H460 tumor; 5 mg/kg, Before Injection) | Tumor size (Transplanted H460 tumor; [6]) | Tumor size (Transplanted H460 tumor; [7]) | Tumor size (Transplanted H460 tumor; [8]) | Tumor size (Transplanted H460 tumor; 10 mg/kg, Before Injection) | Tumor size (Transplanted H460 tumor; [9]) | Tumor size (Transplanted H460 tumor; [10]) | Tumor size (Transplanted H460 tumor; [11]) | also measured
CC[C@H](C)[C@@H]([C@@H](CC(=O)N1CCC[C@H]1[C@H](OC)[C@@H](C)C(=O)N[C@H](C)[C@@H](O)c1ccccc1)OC)N(C)C(=O)[C@@H](NC(=O)[C@H](C(C)C)N(C)C(=O)OCc1ccc(NC(=O)[C@H](CCCNC(N)=O)NC(=O)[C@@H](NC(=O)CCCCCN2C(=O)CC(SC[C@H](NC(=O)CC[C@H](NC(=O)c3ccc(NCc4cnc5[nH]c(N)nc(=O)c5n4)cc3)C(=O)O)C(=O)N[C@@H](CCCCN)C(=O)N[C@@H](CCC(=O)O)C(=O)N[C@@H](Cc3ccccc3)C(=O)N[C@@H](CC(C)C)C(=O)N[C@@H](Cc3c[nH]cn3)C(=O)N3CCC[C@H]3C(=O)N[C@@H](CO)C(=O)N[C@@H](CCCCN)C(=O)N[C@H](C(=O)N[C@@H](CC(=O)O)C(=O)N[C@@H](CC(C)C)C(=O)N3CCC[C@H]3C(=O)N[C@@H](CCCNC(=N)N)C(=O)O)C(C)C)C2=O)C(C)C)cc1)C(C)C (stereo partly drawn) [LDC10B] (I: {Pteroyl-γGlu}-CKEFLHPSKVDLPR-OH / II: V[Cit][PABC][NMeV]V[Dil][Dolaproine]-X1; linker I:1-II:N via Hexanoyl(6-succinimido-3yl)) | can inhibit the tumor growth | can inhibit the tumor growth | 225.32 mm^3 | 108.73 mm^3 | 0 mm^3 | 0 mm^3 | can inhibit the tumor growth | 89.25 mm^3 | 78.63 mm^3 | 49.11 mm^3 | 52.5 mm^3 | 97.38 mm^3 | 45.74 mm^3 | 6.32 mm^3 | 0 mm^3 | Tumor size (Transplanted SKOV3 tumor; Before Injection): 178.68 mm^3; Tumor size (Transplanted SKOV3 tumor; Five days after Injection 1): 163.05 mm^3; Tumor size (Transplanted SKOV3 tumor; Five days after Injection 2): 120.51 mm^3; Tumor size (Transplanted SKOV3 tumor; Five days after Injection 3): 68.31 mm^3; less toxic for melanoma cell line A375 lacking Folate receptor (melanoma cell line A375): about 15 fold
CC[C@H](C)[C@@H]([C@@H](CC(=O)N1CCC[C@H]1[C@H](OC)[C@@H](C)C(=O)N[C@H](C)[C@@H](O)c1ccccc1)OC)N(C)C(=O)[C@@H](NC(=O)[C@H](C(C)C)N(C)C(=O)OCc1ccc(NC(=O)[C@H](CCCNC(N)=O)NC(=O)[C@@H](NC(=O)CCCCCN2C(=O)CC(SC[C@H](NC(=O)[C@H](CCCNC(=N)N)NC(=O)[C@H](CCCNC(=N)N)NC(=O)[C@H](CCCNC(=N)N)NC(=O)[C@H](CCCNC(=N)N)NC(=O)[C@H](CCCNC(=N)N)NC(=O)[C@H](CCCNC(=N)N)NC(=O)[C@H](CCCNC(=N)N)NC(=O)[C@H](CCCNC(=N)N)NC(=O)[C@@H](N)CCCNC(=N)N)C(=O)N[C@@H](CCCCN)C(=O)N[C@@H](CCC(=O)O)C(=O)N[C@@H](Cc3ccccc3)C(=O)N[C@@H](CC(C)C)C(=O)N[C@@H](Cc3c[nH]cn3)C(=O)N3CCC[C@H]3C(=O)N[C@@H](CO)C(=O)N[C@@H](CCCCN)C(=O)N[C@H](C(=O)N[C@@H](CC(=O)O)C(=O)N[C@@H](CC(C)C)C(=O)N3CCC[C@H]3C(=O)N[C@@H](CCCNC(=N)N)C(=O)O)C(C)C)C2=O)C(C)C)cc1)C(C)C (stereo partly drawn) [LDC10H] (I: H-RRRRRRRRRCKEFLHPSKVDLPR-OH / II: V[Cit][PABC][NMeV]V[Dil][Dolaproine]-X1; linker I:10-II:N via Hexanoyl(6-succinimido-3yl)) | can inhibit the tumor growth | can inhibit the tumor growth | 88.6 mm^3 | 16.77 mm^3 | 0 mm^3 | 0 mm^3 | can inhibit the tumor growth | 136.49 mm^3 | 71.51 mm^3 | 65.73 mm^3 | 11.64 mm^3 | 126 mm^3 | 108.15 mm^3 | 37.5 mm^3 | 2.34 mm^3 | more potent than mono-ligand drug conjugate LDC10A [2]: 10 fold
CC[C@H](C)[C@@H]([C@@H](CC(=O)N1CCC[C@H]1[C@H](OC)[C@@H](C)C(=O)N[C@H](C)[C@@H](O)c1ccccc1)OC)N(C)C(=O)[C@@H](NC(=O)[C@H](C(C)C)N(C)C(=O)OCc1ccc(NC(=O)[C@H](CCCNC(N)=O)NC(=O)[C@@H](NC(=O)CCCCCN2C(=O)CC(SC[C@H](NC(=O)CNC(=O)[C@@H]3CCCN3C(=O)[C@H](CCCNC(=N)N)NC(=O)[C@H](CC(C)C)NC(=O)CNC(=O)[C@H](Cc3ccc(O)cc3)NC(=O)[C@H](CO)NC(=O)[C@H](Cc3c[nH]c4ccccc34)NC(=O)[C@H](Cc3c[nH]cn3)NC(=O)[C@H](CCC(=O)O)NC(=O)CC[C@H](NC(=O)c3ccc(NCC4=Nc5c([nH]c(N)nc5=O)NC4)cc3)C(=O)O)C(=O)O)C2=O)C(C)C)cc1)C(C)C (stereo partly drawn) [LDC11B] |  |  |  |  |  |  |  |  |  |  |  |  |  |  |  | IC50 [3]: 81.3 nM; IC50 [4]: 43.8 nM
CC[C@H](C)[C@@H]([C@@H](CC(=O)N1CCC[C@H]1[C@H](OC)[C@@H](C)C(=O)N[C@H](C)[C@@H](O)c1ccccc1)OC)N(C)C(=O)[C@@H](NC(=O)[C@H](C(C)C)N(C)C(=O)OCc1ccc(NC(=O)[C@H](CCCNC(N)=O)NC(=O)[C@@H](NC(=O)CCCCCN2C(=O)CC(SC[C@H](N)C(=O)NCCCC[C@@H](NC(=O)[C@H](Cc3ccc(O)cc3)NC(=O)[C@H](CO)NC(=O)[C@H](Cc3c[nH]c4ccccc34)NC(=O)[C@H](Cc3c[nH]cn3)NC(=O)[C@@H]3CCC(=O)N3)C(=O)N[C@@H](CC(C)C)C(=O)N[C@@H](CCCNC(=N)N)C(=O)N3CCC[C@H]3C(=O)NCC(N)=O)C2=O)C(C)C)cc1)C(C)C (stereo partly drawn) [LDC13A, P13-MC-Val-Cit-PAB-MMAE] |  |  |  |  |  |  |  |  |  |  |  |  |  |  |  | IC50 [5]: 4500 nM
